Experimental data published in patent publication US5814467A, “APO AI polypeptides, diagnostic methods and systems for quantifying APO AI, and therapeutic methods” (The Scripps Research Institute, priority 1994, dated 1998).
Entries after “also recorded” stand apart in the source; their conditions may differ. Part of at least one peptide drawing is inferred or uncertain, most often the ends. Some compounds share one wording; it may come from a single statement. Residues, ends and D or L forms follow the SMILES beside them.

Assays:
MAB AI-4 = test: Competitive RIA, MAB AI-4 binding to Apo AI/HDL-coated wells; set-up: species or system mouse; conditions: FIG. 3 and FIG. 4
Protocol: The immunoreactivity of MAB AI-4 for native Apo AI/HDL and various synthetic polypeptides was examined by a competitive RIA performed as follows:
(§1) One hundred μl of PBS (0.15M NaCl, 0.01M NaPO4, pH 7.2) containing 10 μg/ml Apo AI/HDL were admixed to the wells of microtiter plates. The plates were maintained for 1 hour at 20° C. on a rotating platform to allow the Apo AI/HDL to adhere to the wells and form solid supports. After aspirating excess liquid from the wells, 200 μl of block solution (3% BSA, 3% NGS in PBS) was admixed to each well, and the wells were maintained for 30 minutes at 20° C. on a rotating platform. Subsequently, the blocking solution was removed by aspiration, and the wells were washed 3 times with SPRIA buffer.
(§2) To each well was then admixed first with 50 μl of PBS containing 3% BSA and various concentrations of competitor antigen, i.e., Apo AI/HDL peptide, and, second, 50 μl of MAB AI-4 in the form of clarified ascites diluted 1:11.25×10^5 in PBS containing 3% BSA to form competitive immunoreaction admixtures. In control wells, either competing antigen or antibody was replaced by PBS containing 3% BSA.
(§3) The immunoreaction admixtures were maintained about 16 hours at 4° C. on a rotating platform to permit formation of solid-phase immunoreaction products. After washing the wells as previously described, 100 μl of ^125 I-labeled goat anti-mouse Ig (^125 I-goat anti-mouse Ig diluted to 2×10^5 trichloracetic acid precipitable disintegrations per minute per 100 μl in PBS containing 3% BSA) were admixed to each well. The labeling immunoreaction admixtures so formed were maintained for 4 hours at 4° C. on a rotating platform. Subsequently, the wells were washed with SPRIA buffer as previously described, and the amount of ^125 I-labeled solid-phase immunoreaction product formed was determined in a gamma counter.
The ability of MAB AI-4 to immunoreact with Apo AI/HDL was compared by using Apo AI/HDL and various synthetic peptides as competitors in the above-described RIA. B/Bo represents corrected CPMs which are plotted against increasing concentrations of competition in μg/ml. B/Bo values are determined in the following formula: [formula] where 0% CPM is a measure of non-specific background based on CPM obtained in RIAs where wells coated with Apo AI/HDL are reacted with the labeled secondary antibody in the absence of primary antibody and competitor, and where 100% CPM is a measure of the maximum non-competed binding of primary antibody to the substrate coated to the wells. The more efficiently a competitor binds to the primary antibody, the lower the B/Bo values.

MAB AI-11 = test: Competitive RIA, MAB AI-11 binding to Apo AI/HDL-coated wells; set-up: species or system mouse; conditions: FIG. 5 and FIG. 6
Protocol: as §1, §2, §3
The immunoreactivity of MAB AI-11 for native Apo AI/HDL and various synthetic polypeptides was examined by a competitive RIA as described in Example 10A. […] Other peptides were evaluated for their ability to immunoreact with AI-1l MAE in competitive RIAs described herein.

Compound: CC(C)C[C@H](NC(=O)[C@H](Cc1ccc(O)cc1)NC(=O)[C@@H]1CCCN1C(=O)[C@H](CCC(N)=O)NC(=O)[C@@H](NC(=O)[C@@H](N)CCCCN)C(C)C)C(=O)O [AI96-101] (H-KVQPYL-OH)
- immunoreactivity with MAB AI-4, competition of binding to Apo AI/HDL (MAB AI-4): did not react
- immunoreactivity with MAB AI-11, competition of binding to Apo AI/HDL (MAB AI-11): do not immunoreact

Compound: CC(C)C[C@H](NC(=O)[C@H](Cc1ccc(O)cc1)NC(=O)[C@@H]1CCCN1C(=O)[C@H](CCC(N)=O)NC(=O)[C@@H](NC(=O)[C@H](CCCCN)NC(=O)[C@H](C)NC(=O)[C@@H](N)CCCCN)C(C)C)C(=O)N[C@@H](CC(=O)O)C(=O)N[C@@H](CC(=O)O)C(=O)N[C@@H](Cc1ccccc1)C(=O)N[C@@H](CCC(N)=O)C(=O)N[C@@H](CCCCN)C(=O)N[C@@H](CCCCN)C(=O)N[C@@H](Cc1c[nH]c2ccccc12)C(=O)N[C@@H](CCC(N)=O)C(=O)N[C@@H](CCC(=O)O)C(=O)N[C@@H](CCC(=O)O)C(=O)O [AI94-111, KAKVQPYLDDFQKKWQEE] (H-KAKVQPYLDDFQKKWQEE-OH)
- immunoreactivity with MAB AI-11, competition of binding to Apo AI/HDL (MAB AI-11): inhibited; also recorded: immunoreact

Compound: CSCC[C@H](NC(=O)[C@H](CCC(=O)O)NC(=O)[C@H](CCC(=O)O)NC(=O)[C@H](CCC(N)=O)NC(=O)[C@H](Cc1c[nH]c2ccccc12)NC(=O)[C@H](CCCCN)NC(=O)[C@H](CCCCN)NC(=O)[C@@H](N)CCC(N)=O)C(=O)N[C@@H](CCC(=O)O)C(=O)N[C@@H](CC(C)C)C(=O)N[C@@H](Cc1ccc(O)cc1)C(=O)N[C@@H](CCCNC(=N)N)C(=O)O [AI105-116] (H-QKKWQEEMELYR-OH)
- immunoreactivity with MAB AI-4, competition of binding to Apo AI/HDL (MAB AI-4): did not react
- immunoreactivity with MAB AI-11, competition of binding to Apo AI/HDL (MAB AI-11): do not immunoreact

Compound: CC(C)C[C@H](NC(=O)[C@H](CC(=O)O)NC(=O)[C@H](CCCCN)NC(=O)[C@@H](N)CO)C(=O)N[C@@H](CCC(=O)O)C(=O)N[C@@H](CCC(=O)O)C(=O)N[C@H](C(=O)N[C@@H](CCCCN)C(=O)N[C@@H](C)C(=O)N[C@@H](CCCCN)C(=O)N[C@H](C(=O)N[C@@H](CCC(N)=O)C(=O)N1CCC[C@H]1C(=O)N[C@@H](Cc1ccc(O)cc1)C(=O)N[C@@H](CC(C)C)C(=O)N[C@@H](CC(=O)O)C(=O)N[C@@H](CC(=O)O)C(=O)N[C@@H](CCC(=O)O)C(=O)N[C@@H](CCC(N)=O)C(=O)N[C@@H](CCCCN)C(=O)N[C@@H](CCCCN)C(=O)N[C@@H](Cc1c[nH]c2ccccc12)C(=O)N[C@@H](CCC(N)=O)C(=O)N[C@@H](CCC(=O)O)C(=O)N[C@@H](CCC(=O)O)C(=O)O)C(C)C)C(C)C (H-SKDLEEVKAKVQPYLDDEQKKWQEE-OH)
- immunoreactivity with MAB AI-11, competition of binding to Apo AI/HDL (MAB AI-11): do not immunoreact

Compound: CSCC[C@H](NC(=O)[C@H](CCC(=O)O)NC(=O)[C@H](CCC(=O)O)NC(=O)[C@H](CCC(N)=O)NC(=O)[C@H](Cc1c[nH]c2ccccc12)NC(=O)[C@H](CCCCN)NC(=O)[C@H](CCCCN)NC(=O)[C@H](CCC(N)=O)NC(=O)[C@H](CCC(=O)O)NC(=O)[C@H](CC(=O)O)NC(=O)[C@H](CC(=O)O)NC(=O)[C@H](CC(C)C)NC(=O)[C@H](Cc1ccc(O)cc1)NC(=O)[C@@H]1CCCN1)C(=O)N[C@@H](CCC(=O)O)C(=O)N[C@@H](CC(C)C)C(=O)N[C@@H](Cc1ccc(O)cc1)C(=O)N[C@@H](CCCNC(=N)N)C(=O)N[C@@H](CCC(N)=O)C(=O)N[C@@H](CCCCN)C(=O)N[C@H](C(=O)N[C@@H](CCC(=O)O)C(=O)N1CCC[C@H]1C(=O)O)C(C)C [AI99-121 (E in residue position 104)] (H-PYLDDEQKKWQEEMELYRQKVEP-OH)
- immunoreactivity with MAB AI-4, competition of binding to Apo AI/HDL (MAB AI-4): immunoreact

Compound: CC(C)C[C@H](NC(=O)[C@H](CC(=O)O)NC(=O)[C@H](CCCCN)NC(=O)[C@@H](N)CO)C(=O)N[C@@H](CCC(=O)O)C(=O)N[C@@H](CCC(=O)O)C(=O)N[C@H](C(=O)N[C@@H](CCCCN)C(=O)N[C@@H](C)C(=O)N[C@@H](CCCCN)C(=O)N[C@H](C(=O)N[C@@H](CCC(N)=O)C(=O)N1CCC[C@H]1C(=O)N[C@@H](Cc1ccc(O)cc1)C(=O)N[C@@H](CC(C)C)C(=O)N[C@@H](CC(=O)O)C(=O)N[C@@H](CC(=O)O)C(=O)N[C@@H](Cc1ccccc1)C(=O)N[C@@H](CCC(N)=O)C(=O)N[C@@H](CCCCN)C(=O)N[C@@H](CCCCN)C(=O)N[C@@H](Cc1c[nH]c2ccccc12)C(=O)N[C@@H](CCC(N)=O)C(=O)N[C@@H](CCC(=O)O)C(=O)N[C@@H](CCC(=O)O)C(=O)O)C(C)C)C(C)C [AI87-111] (H-SKDLEEVKAKVQPYLDDFQKKWQEE-OH)
- immunoreactivity with MAB AI-4, competition of binding to Apo AI/HDL (MAB AI-4): did not react

Compound: CSCC[C@H](NC(=O)[C@H](CCC(=O)O)NC(=O)[C@@H](N)CCC(N)=O)C(=O)N[C@@H](CO)C(=O)N[C@@H](CCCCN)C(=O)N[C@@H](CC(=O)O)C(=O)N[C@@H](CC(C)C)C(=O)N[C@@H](CCC(=O)O)C(=O)N[C@@H](CCC(=O)O)C(=O)N[C@H](C(=O)N[C@@H](CCCCN)C(=O)N[C@@H](C)C(=O)N[C@@H](CCCCN)C(=O)N[C@H](C(=O)N[C@@H](CCC(N)=O)C(=O)N1CCC[C@H]1C(=O)N[C@@H](Cc1ccc(O)cc1)C(=O)N[C@@H](CC(C)C)C(=O)N[C@@H](CC(=O)O)C(=O)N[C@@H](CC(=O)O)C(=O)N[C@@H](Cc1ccccc1)C(=O)N[C@@H](CCC(N)=O)C(=O)N[C@@H](CCCCN)C(=O)N[C@@H](CCCCN)C(=O)N[C@@H](Cc1c[nH]c2ccccc12)C(=O)N[C@@H](CCC(N)=O)C(=O)N[C@@H](CCC(=O)O)C(=O)N[C@@H](CCC(=O)O)C(=O)O)C(C)C)C(C)C [AI84-111] (H-QEMSKDLEEVKAKVQPYLDDFQKKWQEE-OH)
- immunoreactivity with MAB AI-11, competition of binding to Apo AI/HDL (MAB AI-11): inhibited; also recorded: immunoreact

Compound: CC(C)C[C@H](NC(=O)[C@H](CCC(=O)O)NC(=O)[C@H](C)NC(=O)[C@H](CCCNC(=N)N)NC(=O)[C@H](CC(C)C)NC(=O)[C@@H]1CCCN1C(=O)[C@H](CCC(=O)O)NC(=O)[C@@H](NC(=O)[C@H](CCCCN)NC(=O)[C@H](CCC(N)=O)NC(=O)[C@H](CCCNC(=N)N)NC(=O)[C@@H](N)Cc1ccc(O)cc1)C(C)C)C(=O)O [AI115-126, YRQKVEPLRAEL] (H-YRQKVEPLRAEL-OH)
- immunoreactivity with MAB AI-4, competition of binding to Apo AI/HDL (MAB AI-4): did not react
- immunoreactivity with MAB AI-11, competition of binding to Apo AI/HDL (MAB AI-11): do not immunoreact

Compound: CC(C)C[C@H](NC(=O)[C@H](Cc1ccc(O)cc1)NC(=O)[C@@H]1CCCN1C(=O)[C@H](CCC(N)=O)NC(=O)[C@@H](NC(=O)[C@H](CCCCN)NC(=O)[C@H](C)NC(=O)[C@H](CCCCN)NC(=O)[C@@H](N)C(C)C)C(C)C)C(=O)O [AI93-101] (H-VKAKVQPYL-OH)
- immunoreactivity with MAB AI-4, competition of binding to Apo AI/HDL (MAB AI-4): did not react
- immunoreactivity with MAB AI-11, competition of binding to Apo AI/HDL (MAB AI-11): do not immunoreact
